# Results as given in PubChem BioAssay AID504332 (National Center for Advancing Translational Sciences (NCATS), 2011).
# Screen size: about 350,000 compounds; about 31,000 (8.9%) were called active. Inconclusive results, whose numbers are uncertain, are shown with a selection of clear calls. Calls come from the whole dose curve; as a rule, active = well fitted inhibition curve with a large enough effect; inconclusive = small, poorly fitted or top-dose-only effect; inactive = no such curve, though single readings can be large or run the other way. A potency beside an inconclusive call is a rough fit, not a confirmed value.
# Biological target: Histone-lysine N-methyltransferase EHMT2 (Homo sapiens) (UniProt Q96KQ7)
# Test: qHTS Assay for Inhibitors of Histone Lysine Methyltransferase G9a; note: nearly all actives have a fitted effect of over 75% in size
# Settings: G9a H3K9 monomethylation, AlphaScreen, 2 h; activity, negative = inhibition: at 59 µM (top of the series) unless noted
# In short: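 Enzyme 20 nM + cpd, 15 min RT; add b-H3K9 pep 500 nM / SAM 20 uM; 2 h RT; anti-H3K9me1 Ab 0.5 ug/mL + SA donor / anti-rabbit acceptor beads 20 ug/mL each, 10 min; AlphaScreen read.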
# % is set by controls: 0 for no effect and ±100 for the full control effect; potency is the fitted concentration of half-maximal effect; tags give direction and shape of the fitted curve.
# UniProt Q96KQ7, sequence (Q96KQ7 whole entry, looked up): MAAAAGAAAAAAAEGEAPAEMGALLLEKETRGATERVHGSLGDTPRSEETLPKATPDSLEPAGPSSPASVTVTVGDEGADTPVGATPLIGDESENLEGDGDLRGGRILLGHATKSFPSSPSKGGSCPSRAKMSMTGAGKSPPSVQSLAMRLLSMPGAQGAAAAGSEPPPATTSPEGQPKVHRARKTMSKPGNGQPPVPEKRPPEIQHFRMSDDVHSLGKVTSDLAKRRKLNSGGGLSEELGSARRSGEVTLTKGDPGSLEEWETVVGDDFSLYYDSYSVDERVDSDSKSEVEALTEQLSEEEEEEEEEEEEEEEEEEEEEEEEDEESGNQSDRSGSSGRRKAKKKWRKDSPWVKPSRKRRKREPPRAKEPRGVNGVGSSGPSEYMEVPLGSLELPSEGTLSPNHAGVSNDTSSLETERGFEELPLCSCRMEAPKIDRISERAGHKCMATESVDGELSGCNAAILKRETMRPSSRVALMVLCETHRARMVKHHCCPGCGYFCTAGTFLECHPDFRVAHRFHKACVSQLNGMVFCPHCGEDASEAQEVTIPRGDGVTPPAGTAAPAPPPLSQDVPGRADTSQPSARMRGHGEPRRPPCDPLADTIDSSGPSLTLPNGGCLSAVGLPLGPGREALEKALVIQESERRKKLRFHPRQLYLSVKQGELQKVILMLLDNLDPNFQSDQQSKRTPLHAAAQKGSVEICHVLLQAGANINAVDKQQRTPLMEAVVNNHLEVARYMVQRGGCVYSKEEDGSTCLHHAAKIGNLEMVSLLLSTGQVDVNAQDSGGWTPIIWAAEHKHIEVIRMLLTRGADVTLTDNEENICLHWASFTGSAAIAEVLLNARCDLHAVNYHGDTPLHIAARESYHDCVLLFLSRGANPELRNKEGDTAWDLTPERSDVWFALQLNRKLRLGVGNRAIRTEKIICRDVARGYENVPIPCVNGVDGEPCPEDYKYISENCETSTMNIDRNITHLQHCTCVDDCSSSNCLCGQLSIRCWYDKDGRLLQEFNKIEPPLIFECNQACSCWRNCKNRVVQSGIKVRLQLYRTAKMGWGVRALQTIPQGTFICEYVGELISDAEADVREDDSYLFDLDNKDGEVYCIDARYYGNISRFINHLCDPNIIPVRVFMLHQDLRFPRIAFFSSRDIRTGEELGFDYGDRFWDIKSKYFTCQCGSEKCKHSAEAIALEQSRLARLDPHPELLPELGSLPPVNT
Compound,"activity, negative = inhibition",Potency
CCN(c1cccc(C)c1)S(=O)(=O)c1cc2c3c(c1)CCC(=O)N3CCC2,inactive: -28.8% [at 102 µM],
COc1ccccc1C(=O)Nc1ccc(N2CCN(Cc3ccccc3)CC2)cc1,inconclusive: -78.4% [inhibitor],
Cc1ccc(NC(=O)CN(C)C(=O)c2ccc(Cl)c([N+](=O)[O-])c2)cc1,,active: 22.4 µM
COc1ccc(NC(=O)N/C=C/c2ccco2)cc1,,active: 10 µM
CC1CCC(=NNc2ccc(C(F)(F)F)cc2[N+](=O)[O-])CC1 (stereo not drawn),,active: 3.55 µM
Cc1ccc(CNC(=O)C2CC(c3ccccc3[N+](=O)[O-])=NO2)o1 (stereo not drawn),,"inconclusive: 39.8 µM [inhibitor, single point]"
CC(C)CSc1nc(N2CCOCC2)c2c(c1C#N)CC(C)(C)SC2,,"inconclusive: 89.1 µM [inhibitor, single point]"
COc1ccc([N+](=O)[O-])cc1NC(=O)CCSCCc1ccccn1,,"inconclusive: 79.4 µM [inhibitor, partial curve, poor fit]"
CCc1nnc(NS(=O)(=O)c2ccc(N=CC3=C(O)CC(C)(C)CC3=O)cc2)s1,inactive: -44.3% [at 102 µM],
CCc1nnc(NC(=O)CSc2nnc(-c3ccccc3O)n2CC)s1,,"inconclusive: 89.1 µM [inhibitor, single point]"
COc1ccc(C(=O)C2CCCN(C(=O)C3=CCCC3)C2)cc1OC (stereo not drawn),,"inconclusive: 50.1 µM [inhibitor, partial curve, poor fit]"
COc1cccc(CN2C(=O)N(C(C)C)C(N(O)C(=O)NC(C)C)C2(C)C)c1OC (stereo not drawn),,"inconclusive: 39.8 µM [inhibitor, single point]"
O=C(NCc1ccccc1)C1=C[C@@H](c2ccc(C(F)(F)F)cc2)C[C@@H](OCc2ccc(CO)cc2)O1,inconclusive: -79.7% [inhibitor],
Cc1cc(=O)[nH]c(N/N=C/c2ccc(F)cc2)n1,,"inconclusive: 100 µM [inhibitor, single point]"
O=C(NCC1COc2ccccc2O1)c1ccc(NC(=O)C2CCCO2)cc1 (stereo not drawn),,"inconclusive: 8.91 µM [inhibitor, partial curve]"
COc1cc2ccccc2cc1C(=O)Nc1ccc(N2CCN(C)CC2)cc1,inconclusive: -60.6% [inhibitor],
CCCCSc1nc(C(=O)O)cc(=O)[nH]1,,active: 39.8 µM
Cc1cc(-c2ccc(C)c(S(=O)(=O)Nc3ccc(C)c(N(C)C)c3)c2)on1,,"inconclusive: 25.1 µM [inhibitor, partial curve, poor fit]"
COc1ncc2nc(-c3cccs3)c(=O)n(C)c2n1,inactive: 11.6% [at 0.501 µM],
O=C(Nc1nc(-c2ccncc2)cs1)C1COc2ccccc2O1 (stereo not drawn),,active: 2.24 µM
O=S(=O)(c1ccc(NC(=S)Nc2ccccc2)cc1)N1CCOCC1,,active: 79.4 µM
Cc1ccc(NP(=O)(c2ccc(N(C)C)cc2NC(=O)c2cccs2)N2CCOCC2)cc1 (stereo not drawn),,"inconclusive: 89.1 µM [inhibitor, single point]"

Compound,"activity, negative = inhibition",Potency
O=C(O)CN1C(=O)/C(=C\c2cc([N+](=O)[O-])ccc2OCc2ccccc2Cl)SC1=S,,active: 35.5 µM
O=S(=O)(NCCc1csc(-c2cccnc2)n1)c1ccc(Cl)s1,,"inconclusive: 89.1 µM [inhibitor, single point]"
CC(=O)c1ccc(NC(=O)Cn2c(=O)nc(-c3ccccc3)c3ccccc32)cc1,inactive: 10.8% [at 12.7 µM],
COc1cc(NC(=O)COCc2cc(-c3ccc4c(c3)OCO4)on2)c(OC)cc1Cl,inactive: -7.59%,
COc1ccc(-c2cc3ccc(OCc4nn[nH]n4)cc3oc2=O)cc1OC,,active: 44.7 µM
CCC(=O)Nc1ccc2nc3c(=O)[nH]c(=S)[nH]c3nc2c1,,active: 31.6 µM
CC[C@H](C)[C@@H](C(=O)NCCCCCCCCCCC(=O)N1CCN(C(=O)OC(C)(C)C)CC1)n1cc(CCCCCNC(=O)OC(C)(C)C)nn1,inactive: -15.8% [at 2.33 µM],
COc1ccc(-c2ccc(-c3nc4c(c(=O)[nH]c(=O)n4Cc4ccccc4)n3C)o2)c([N+](=O)[O-])c1,,"inconclusive: 2 µM [inhibitor, full curve, poor fit]"
O=C(CSc1ncccn1)Nc1ccccc1,inconclusive: -52% [inhibitor],
CCN(CC)c1cc(NC2CCCCC2)c2c3c(onc13)-c1ccccc1C2=O,,active: 7.08 µM
O=C(Nc1ccc(Cl)cc1Cl)c1n[nH]c(Cn2cncn2)n1,inactive: 17.8% [at 12.7 µM],
CCOCCn1c(SCCc2ccccc2)nc2c1c(=O)[nH]c(=O)n2C,,"inconclusive: 31.6 µM [inhibitor, single point]"
O=C(c1cc2n(n1)C(C(F)(F)F)CC(c1ccc(F)cc1)N2)N1CCCC1 (stereo not drawn),,"inconclusive: 89.1 µM [inhibitor, single point]"
Cc1ccc(C)c(N2CCN(C3CCCC(C)C3)CC2)c1 (stereo not drawn),,"inconclusive: 89.1 µM [inhibitor, single point]"
O=C(Nc1cccc(C(F)(F)F)c1)c1ccc2nc(-c3ccco3)c(-c3ccco3)nc2c1,,"inconclusive: 2.51 µM [inhibitor, partial curve, poor fit]"
CCn1nc(C(=O)Nc2ccc(S(=O)(=O)Nc3nccs3)cc2)c2ccccc2c1=O,,"inconclusive: 1.78 µM [inhibitor, partial curve, poor fit]"
O=C(COc1cccc2cccnc12)NNC(=S)Nc1ccccc1,,active: 17.8 µM
Cc1nc2cc3ccccc3cc2c(=O)[nH]1,,"inconclusive: 39.8 µM [inhibitor, single point]"
CC(=O)NCc1ccc(S(=O)(=O)N/N=C/c2ccc(Br)cc2)cc1,,"inconclusive: 25.1 µM [inhibitor, single point]"
COc1cc(C2c3c(-c4ccccc4O)n[nH]c3C(=O)N2Cc2ccncc2)cc(OC)c1OC (stereo not drawn),,"inconclusive: 14.1 µM [inhibitor, partial curve]"
Cc1cc(-n2c(C)cc(C(=O)CN3C(=O)NC4(CCCCC4C)C3=O)c2C)no1 (stereo not drawn),,"inconclusive: 79.4 µM [inhibitor, single point]"
